# The supplement of paper PMC8728848
# Some of the results follow.
# Tests used:
# Assay in all cases: glycan array binding signal (z-score within array); higher = stronger binding
# Settings in all cases: glycan notation: IUPAC condensed, linker removed
# Glc(a1-4)Glc = target: Glc(a1-4)Glc
# Summary of the method: (§1)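 Arrays were curated from the Consortium for Functional Glycomics database, 3228 in total, and kept only where the protein sequence was available. Binding is expressed as a within-array Z-score. This score was averaged across arrays of the same protein sequence at different concentrations or buffers and across linkers, and negative values can be read as non-binding.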
# Glc(a1-6)Glc(a1-6)Glc = target: Glc(a1-6)Glc(a1-6)Glc
# Summary of the method: as §1
# Glc(b1-4)Glc = target: Glc(b1-4)Glc
# Summary of the method: as §1
# Glc(b1-6)Glc = target: Glc(b1-6)Glc
# Summary of the method: as §1
# GlcA(b1-3)Gal = target: GlcA(b1-3)Gal
# Summary of the method: as §1
# GlcA(b1-3)GlcNAc = target: GlcA(b1-3)GlcNAc
# Summary of the method: as §1
# GlcA(b1-6)Gal = target: GlcA(b1-6)Gal
# Summary of the method: as §1
# [1] = target: GlcNAc(a1-3)Gal(b1-4)GlcNAc
# Summary of the method: as §1
# [2] = target: GlcNAc(a1-4)Gal(b1-3)GlcNAc
# Summary of the method: as §1
# [3] = target: GlcNAc(a1-4)Gal(b1-4)GalNAc
# Summary of the method: as §1
# [4] = target: GlcNAc(a1-4)Gal(b1-4)GlcNAc
# Summary of the method: as §1
# [5] = target: GlcNAc(a1-4)Gal(b1-4)GlcNAc(b1-3)Gal(b1-4)Glc
# Summary of the method: as §1
# [6] = target: GlcNAc(a1-4)Gal(b1-4)GlcNAc(b1-3)Gal(b1-4)GlcNAc
# Summary of the method: as §1
# [7] = target: GlcNAc(a1-4)Gal(b1-4)GlcNAc(b1-3)Gal(b1-4)GlcNAc(b1-3)Gal(b1-4)GlcNAc
# Summary of the method: as §1
# [8] = target: GlcNAc(a1-4)Gal(b1-4)GlcNAc(b1-3)Gal(b1-4)[Fuc(a1-3)]GlcNAc(b1-3)Gal(b1-4)[Fuc(a1-3)]GlcNAc
# Summary of the method: as §1
# [9] = target: GlcNAc(a1-6)Gal(b1-4)GlcNAc
# Summary of the method: as §1
# [10] = target: GlcNAc(b1-2)Gal(b1-3)GalNAc
# Summary of the method: as §1
# [11] = target: GlcNAc(b1-2)Man(a1-3)[GlcNAc(b1-2)Man(a1-6)]Man(b1-4)GlcNAc(b1-4)GlcNAc
# Summary of the method: as §1
# [12] = target: GlcNAc(b1-2)Man(a1-3)[GlcNAc(b1-2)Man(a1-6)]Man(b1-4)GlcNAc(b1-4)[Fuc(a1-6)]GlcNAc
# Summary of the method: as §1
# GlcNAc(b1-3)Gal = target: GlcNAc(b1-3)Gal
# Summary of the method: as §1
# [13] = target: GlcNAc(b1-3)Gal(b1-3)GalNAc
# Summary of the method: as §1
# GlcNAc(b1-3)Gal(b1-4)Glc = target: GlcNAc(b1-3)Gal(b1-4)Glc
# Summary of the method: as §1
# [14] = target: GlcNAc(b1-3)Gal(b1-4)GlcNAc
# Summary of the method: as §1
# [15] = target: GlcNAc(b1-3)Gal(b1-4)GlcNAc(b1-3)Gal(b1-4)GlcNAc
# Summary of the method: as §1
# GlcNAc(b1-3)GalNAc = target: GlcNAc(b1-3)GalNAc
# Summary of the method: as §1
# GlcNAc(b1-3)Man = target: GlcNAc(b1-3)Man
# Summary of the method: as §1
# [16] = target: GlcNAc(b1-3)[GlcNAc(b1-4)][GlcNAc(b1-6)]GlcNAc
# Summary of the method: as §1
# [17] = target: GlcNAc(b1-3)[GlcNAc(b1-6)]Gal(b1-4)GlcNAc
# Summary of the method: as §1
# [18] = target: GlcNAc(b1-3)[GlcNAc(b1-6)]GalNAc
# Summary of the method: as §1
# [19] = target: GlcNAc(b1-4)Gal(b1-4)GlcNAc
# Summary of the method: as §1
# GlcNAc(b1-4)GlcNAc = target: GlcNAc(b1-4)GlcNAc
# Summary of the method: as §1
# [20] = target: GlcNAc(b1-4)GlcNAc(b1-4)GlcNAc
# Summary of the method: as §1
# [21] = target: GlcNAc(b1-4)GlcNAc(b1-4)GlcNAc(b1-4)GlcNAc(b1-4)GlcNAc
# Summary of the method: as §1
# [22] = target: GlcNAc(b1-4)GlcNAc(b1-4)GlcNAc(b1-4)GlcNAc(b1-4)GlcNAc(b1-4)GlcNAc
# Summary of the method: as §1
# [23] = target: GlcNAc(b1-4)[GlcNAc(b1-6)]GalNAc
# Summary of the method: as §1
# [24] = target: GlcNAc(b1-6)Gal(b1-4)GlcNAc
# Summary of the method: as §1
binder,measurement,setting,value
"Flo11 (Saccharomyces cerevisiae), Q1H8S8 (protein) MGSSHHHHHHSSGLVPRGSHMFPTALVPRGSSEGTSCNSIVNGCPNLDFNWHMDQQNIMQYTLDVTSVSWVQDNTYQITIHVKGKENIDLKYLWSLKIIGVTGPKGTVQLYGYNENTYLIDNPTDFTATFEVYATQDVNSCQVWMPNFQIQFEYLQGSAAQYASSWQWGTTSFDLSTGCNNYDNQGHSQTDFPGFYWNIDCDNNCGGTKSS",glycan array binding signal (z-score),Glc(a1-4)Glc,-0.506
same,glycan array binding signal (z-score),Glc(a1-6)Glc(a1-6)Glc,-0.507
same,glycan array binding signal (z-score),Glc(b1-4)Glc,-0.496
same,glycan array binding signal (z-score),Glc(b1-6)Glc,-0.504
same,glycan array binding signal (z-score),GlcA(b1-3)Gal,-0.504
same,glycan array binding signal (z-score),GlcA(b1-3)GlcNAc,-0.507
same,glycan array binding signal (z-score),GlcA(b1-6)Gal,-0.505
same,glycan array binding signal (z-score),[1],-0.505
same,glycan array binding signal (z-score),[2],-0.473
same,glycan array binding signal (z-score),[3],-0.431
same,glycan array binding signal (z-score),[4],-0.475
same,glycan array binding signal (z-score),[5],1.96
same,glycan array binding signal (z-score),[6],1.99
same,glycan array binding signal (z-score),[7],1.56
same,glycan array binding signal (z-score),[8],0.071
same,glycan array binding signal (z-score),[9],-0.51
same,glycan array binding signal (z-score),[10],0.891
same,glycan array binding signal (z-score),[11],-0.505
same,glycan array binding signal (z-score),[12],-0.486
same,glycan array binding signal (z-score),GlcNAc(b1-3)Gal,-0.507
same,glycan array binding signal (z-score),[13],1.75
same,glycan array binding signal (z-score),GlcNAc(b1-3)Gal(b1-4)Glc,1.26
same,glycan array binding signal (z-score),[14],1.62
same,glycan array binding signal (z-score),[15],2.19
same,glycan array binding signal (z-score),GlcNAc(b1-3)GalNAc,1.48
same,glycan array binding signal (z-score),GlcNAc(b1-3)Man,-0.504
same,glycan array binding signal (z-score),[16],-0.504
same,glycan array binding signal (z-score),[17],-0.494
same,glycan array binding signal (z-score),[18],-0.451
same,glycan array binding signal (z-score),[19],-0.509
same,glycan array binding signal (z-score),GlcNAc(b1-4)GlcNAc,-0.501
same,glycan array binding signal (z-score),[20],-0.499
same,glycan array binding signal (z-score),[21],-0.503
same,glycan array binding signal (z-score),[22],-0.507
same,glycan array binding signal (z-score),[23],-0.504
same,glycan array binding signal (z-score),[24],-0.501
